Test results as given in the supplement of paper PMC12067230.
This is a noisy data set.

Experiment: amyloid nucleation score relative to library mode (yeast Sup35 reporter selection) (log enrichment difference); higher = more amyloid nucleation; sequences are the first 22 residues of the Bri2 peptide extended by up to 12 random residues
Conditions: random library (experiment): 1;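 active = nucleation score significantly above 0 at FDR 0.05; inactive = not significantly above 0 or absent from output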
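Note: [psi-pin-] Saccharomyces cerevisiae expressing SupN fusions, induced by 100 µM Cu2SO4, selected 7 d at 30 °C without adenine and uracil, scored by deep sequencing of output versus input.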

Row | Sequence | amyloid nucleation score
1 | EASNCFAIRHFENKFAVETLICHY | inactive
2 | EASNCFAIRHFENKFAVETLICHYCFHGSVGDYA | 7.46
3 | EASNCFAIRHFENKFAVETLICHYEESFSCRDAS | inactive
4 | EASNCFAIRHFENKFAVETLICHYEGSRLGPAGR | 3.2
5 | EASNCFAIRHFENKFAVETLICHYHLF | 5.16
6 | EASNCFAIRHFENKFAVETLICHYNRQSVALQN | inactive
7 | EASNCFAIRHFENKFAVETLICHYPGNH | inactive
8 | EASNCFAIRHFENKFAVETLICHYQTWTVQTVVV | inactive
9 | EASNCFAIRHFENKFAVETLICHYRFSSGCNVMS | 1.93
10 | EASNCFAIRHFENKFAVETLICHYWRSWTWLGL | inactive
11 | EASNCFAIRHFENKFAVETLICIADKGYRINSAL | 1.45
12 | EASNCFAIRHFENKFAVETLICIAFSLSVYGMYL | inactive
13 | EASNCFAIRHFENKFAVETLICIAGIVT | inactive
14 | EASNCFAIRHFENKFAVETLICIAHGGLRTLAL | inactive
15 | EASNCFAIRHFENKFAVETLICIAM | 2.91
16 | EASNCFAIRHFENKFAVETLICIAQPGVLMMCSQ | 4.61
17 | EASNCFAIRHFENKFAVETLICIARFHHSRSTRR | inactive
18 | EASNCFAIRHFENKFAVETLICIASIMWR | inactive
19 | EASNCFAIRHFENKFAVETLICIAVRYFISVSRM | inactive
20 | EASNCFAIRHFENKFAVETLICIAYGKWLRGCAS | 2.26
21 | EASNCFAIRHFENKFAVETLICICDGYVFSVVAE | inactive

Row | Sequence | amyloid nucleation score
22 | EASNCFAIRHFENKFAVETLICICGGL | 7.22
23 | EASNCFAIRHFENKFAVETLICICKLRLQLTCLD | inactive
24 | EASNCFAIRHFENKFAVETLICICPRSACGEMST | 6.74
25 | EASNCFAIRHFENKFAVETLICICSFSVL | inactive
26 | EASNCFAIRHFENKFAVETLICICSNSDRFCFDG | 5.83
27 | EASNCFAIRHFENKFAVETLICICVCHVIRSVLE | inactive
28 | EASNCFAIRHFENKFAVETLICICVWPLRLRGNV | inactive
29 | EASNCFAIRHFENKFAVETLICIDCTSF | 6.6
30 | EASNCFAIRHFENKFAVETLICIDHLPRQDFFHV | 1.93
31 | EASNCFAIRHFENKFAVETLICIDHMALPWFTGA | 6.15
32 | EASNCFAIRHFENKFAVETLICIDKRVVSCTLFR | inactive
33 | EASNCFAIRHFENKFAVETLICIDLGGLEGTPSV | inactive
34 | EASNCFAIRHFENKFAVETLICIDML | inactive
35 | EASNCFAIRHFENKFAVETLICIDPSD | inactive
36 | EASNCFAIRHFENKFAVETLICIDRQGLIDGNPQ | 0.944
37 | EASNCFAIRHFENKFAVETLICIDVGVYGGPREG | 0.556
38 | EASNCFAIRHFENKFAVETLICIDVHVKDVSWI | inactive
39 | EASNCFAIRHFENKFAVETLICIDVNSVCPIERK | inactive
40 | EASNCFAIRHFENKFAVETLICIDVSMFINSSGI | 4.2
41 | EASNCFAIRHFENKFAVETLICIDVTV | inactive

Same assay, conditions: random library (experiment): 2

Row | Sequence | amyloid nucleation score
42 | EASNCFAIRHFENKFAVETLICHWY | 5.84
43 | EASNCFAIRHFENKFAVETLICHYCHGVYLFGR | 6.9
44 | EASNCFAIRHFENKFAVETLICHYFKRSREHRDE | inactive
45 | EASNCFAIRHFENKFAVETLICHYFNRVLSIGG | 1.62
46 | EASNCFAIRHFENKFAVETLICHYNSTSLCLHVN | inactive
47 | EASNCFAIRHFENKFAVETLICHYRYSIMGDGTC | inactive
48 | EASNCFAIRHFENKFAVETLICHYSFVLDICGSC | inactive
49 | EASNCFAIRHFENKFAVETLICHYSKYLWADDGA | 3.81
50 | EASNCFAIRHFENKFAVETLICHYSNWRVVHQLW | inactive
51 | EASNCFAIRHFENKFAVETLICHYSWIGTFSWCG | inactive
52 | EASNCFAIRHFENKFAVETLICHYVLYLWRFTNH | inactive
53 | EASNCFAIRHFENKFAVETLICHYVMDRNSVSLE | 1.96
54 | EASNCFAIRHFENKFAVETLICIA | inactive
55 | EASNCFAIRHFENKFAVETLICIAAFGNLVVQWW | inactive
56 | EASNCFAIRHFENKFAVETLICIACIRNPFYSSD | 6.68
57 | EASNCFAIRHFENKFAVETLICIACVPDV | 6.77
58 | EASNCFAIRHFENKFAVETLICIADFERSTHGYK | 2.29
59 | EASNCFAIRHFENKFAVETLICIAMFTFMDKTRS | inactive
60 | EASNCFAIRHFENKFAVETLICIANRRYCDGNAR | 0.607
61 | EASNCFAIRHFENKFAVETLICIANYRCETRILL | inactive
62 | EASNCFAIRHFENKFAVETLICIAPGN | inactive
63 | EASNCFAIRHFENKFAVETLICIAYMFVQEGVFS | inactive
64 | EASNCFAIRHFENKFAVETLICICCNTTVYHWVG | 6.45
65 | EASNCFAIRHFENKFAVETLICICCWLVFVISNT | inactive
66 | EASNCFAIRHFENKFAVETLICICENHSYARDSG | 7.01

Row | Sequence | amyloid nucleation score
67 | EASNCFAIRHFENKFAVETLICICGGDTIEDLME | 7.15
68 | EASNCFAIRHFENKFAVETLICICHMGCHENM | 5.99
69 | EASNCFAIRHFENKFAVETLICICIIFTFWCE | inactive
70 | EASNCFAIRHFENKFAVETLICICMFGRRLSVCI | inactive
71 | EASNCFAIRHFENKFAVETLICICPGSLEDLCVG | 5.47
72 | EASNCFAIRHFENKFAVETLICICPGSYPRLCE | 6.66
73 | EASNCFAIRHFENKFAVETLICICQEILTFRYRT | inactive
74 | EASNCFAIRHFENKFAVETLICICREQQGPGLSS | 3.89
75 | EASNCFAIRHFENKFAVETLICICRGHHKGVIYD | inactive
76 | EASNCFAIRHFENKFAVETLICICRLSDTLCTVG | inactive
77 | EASNCFAIRHFENKFAVETLICICTGSAYTNRTM | 6.78
78 | EASNCFAIRHFENKFAVETLICICVQSKRSWLIR | 2.86
79 | EASNCFAIRHFENKFAVETLICICWNVNC | 7.09
80 | EASNCFAIRHFENKFAVETLICIDAIWNVWLLVY | inactive
81 | EASNCFAIRHFENKFAVETLICIDCVCQHVAMCH | inactive
82 | EASNCFAIRHFENKFAVETLICIDENDEWLYNPG | inactive
83 | EASNCFAIRHFENKFAVETLICIDIPNQPGMPGL | inactive
84 | EASNCFAIRHFENKFAVETLICIDISAYISAVQV | 0.536
85 | EASNCFAIRHFENKFAVETLICIDLRSWRSMGIG | 3.27
86 | EASNCFAIRHFENKFAVETLICIDRFFSGNARLL | 3.01
87 | EASNCFAIRHFENKFAVETLICIDSCMHM | -0.0862
88 | EASNCFAIRHFENKFAVETLICIDSFRFATSWDM | inactive
89 | EASNCFAIRHFENKFAVETLICIDSVSQASFCCC | 5.59
90 | EASNCFAIRHFENKFAVETLICIDWIYGLFCSLA | inactive

Same assay, conditions: random library (experiment): 3

Row | Sequence | amyloid nucleation score
91 | EASNCFAIRHFENKFAVETLICHWTRLIVKVVLW | inactive
92 | EASNCFAIRHFENKFAVETLICHYIRRAVYIVII | inactive
93 | EASNCFAIRHFENKFAVETLICHYLFSSVLNVEA | inactive
94 | EASNCFAIRHFENKFAVETLICHYPGIPPCVIGS | inactive
95 | EASNCFAIRHFENKFAVETLICHYRRLTCFHVMT | inactive
96 | EASNCFAIRHFENKFAVETLICHYSVCLVNLPSR | inactive
97 | EASNCFAIRHFENKFAVETLICHYSYTVSSLPRS | -0.0863
98 | EASNCFAIRHFENKFAVETLICIALLCIYDYCSL | inactive
99 | EASNCFAIRHFENKFAVETLICIAMDMRSCVRSF | inactive
100 | EASNCFAIRHFENKFAVETLICIAMVWRMNDSKT | inactive
101 | EASNCFAIRHFENKFAVETLICIANPRSVGRPAT | inactive
102 | EASNCFAIRHFENKFAVETLICIARKVFFICRRY | inactive
103 | EASNCFAIRHFENKFAVETLICIASMPVFRTFTA | inactive
104 | EASNCFAIRHFENKFAVETLICIASTSL | inactive
105 | EASNCFAIRHFENKFAVETLICIAVWTAFTSVAG | inactive
106 | EASNCFAIRHFENKFAVETLICICKWLWPVWNEA | inactive
107 | EASNCFAIRHFENKFAVETLICICPKCPWGCGPK | 7.43
108 | EASNCFAIRHFENKFAVETLICICRMCYSEATDT | 7.49
109 | EASNCFAIRHFENKFAVETLICIDDGEVQARRAW | inactive
110 | EASNCFAIRHFENKFAVETLICIDETYLF | inactive
111 | EASNCFAIRHFENKFAVETLICIDGQSGGWACFS | 7.96
112 | EASNCFAIRHFENKFAVETLICIDGVYYSLGGAA | 4.77
113 | EASNCFAIRHFENKFAVETLICIDHIFFYFRSFA | inactive
114 | EASNCFAIRHFENKFAVETLICIDLECSEGGFSL | 4.11
115 | EASNCFAIRHFENKFAVETLICIDLWIG | 3.61
116 | EASNCFAIRHFENKFAVETLICIDRNTVSKLRV | inactive
117 | EASNCFAIRHFENKFAVETLICIDSLLRNWGPQW | 4.62
118 | EASNCFAIRHFENKFAVETLICIDSLYVCMPLRA | 5.6
119 | EASNCFAIRHFENKFAVETLICIDVSGALYRSRR | 4.91
